# In the supplement of paper PMC4604168 (melanoma cell lines):
# The other results are listed elsewhere or left out. Repeats are few or missing, and single values can be far off.
# System: SkMel2
# Test: cell count relative to DMSO control; melanoma cells; higher = more viable cells
# Settings: library dose: low library concentration; 72 h
# 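Further: cell number obtained by counting DAPI-stained nuclei in high-throughput microscope images with image analysis software, screen run in 1,536-well plates.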
row,SMILES,cell count [%]
1,"CC(C)C[C@H](NC(=O)[C@H](Cc1ccccc1)NC(=O)c1cnccn1)B(O)O [Bortezomib] + COC(=O)c1sccc1S(=O)(=O)Nc1ccc(Nc2ccccc2)cc1OC [GSK0660] (first compound 0.001 µM, partner dose 1 µM)",98
2,"Cc1cn(-c2cc(NC(=O)c3ccc(C)c(Nc4nccc(-c5cccnc5)n4)c3)cc(C(F)(F)F)c2)cn1 [nilotinib] + O=C(Nc1ccccc1)c1cc([N+](=O)[O-])ccc1Cl [GW9662] (first compound 0.2 µM, partner dose 2 µM)",92.4
3,"CC(C)C[C@H](NC(=O)[C@H](Cc1ccccc1)NC(=O)c1cnccn1)B(O)O [Bortezomib] + C=CCn1c(=O)c2cnc(Nc3ccc(N4CCN(C)CC4)cc3)nc2n1-c1cccc(C(C)(C)O)n1 [MK1775] (first compound 0.001 µM, partner dose 0.02 µM)",92.7
4,"Cc1cn(-c2cc(NC(=O)c3ccc(C)c(Nc4nccc(-c5cccnc5)n4)c3)cc(C(F)(F)F)c2)cn1 [nilotinib] + CN(C)S(=O)(=O)c1ccc2c(c1)/C(=C/c1cc3c([nH]1)CCCC3)C(=O)N2 [SU6656] (first compound 0.2 µM, partner dose 0.4 µM)",105
5,"Cc1cc(Nc2cc(N3CCN(C)CC3)nc(/C=C/c3ccccc3)n2)n[nH]1 + CC1(C)NC(=O)N(c2ccc([N+](=O)[O-])c(C(F)(F)F)c2)C1=O [nilutamide] (first compound 0.04 µM, partner dose 1 µM)",99.4
6,"Cn1c(=O)n(-c2ccc(C(C)(C)C#N)cc2)c2c3cc(-c4cnc5ccccc5c4)ccc3ncc21 + O=C(O)c1ccc(-c2c[nH]c3ncc(-c4ccccc4)cc23)cc1C1CCCC1 [GSK650394] (first compound 0.004 µM, partner dose 0.16 µM)",98
7,"Cc1cn(-c2cc(NC(=O)c3ccc(C)c(Nc4nccc(-c5cccnc5)n4)c3)cc(C(F)(F)F)c2)cn1 [nilotinib] + Cc1ccc(NC(=O)c2cccc(N(C)C)c2)cc1NC(=O)c1ccc(O)cc1 [ZM336372] (first compound 0.2 µM, partner dose 2 µM)",102
8,"Cc1cc(Nc2cc(N3CCN(C)CC3)nc(/C=C/c3ccccc3)n2)n[nH]1 + O=C(O)C(=O)Nc1sc2c(c1C(=O)O)CCNC2 [TCS401] (first compound 0.04 µM, partner dose 1.66667 µM)",98
9,"CC(C)C[C@H](NC(=O)[C@H](Cc1ccccc1)NC(=O)c1cnccn1)B(O)O [Bortezomib] + COc1cc(Nc2ncc(F)c(Nc3ccc4c(n3)NC(=O)C(C)(C)O4)n2)cc(OC)c1OC [Tamatinib] (first compound 0.001 µM, partner dose 0.4 µM)",99.8
10,"Cc1cc(Nc2cc(N3CCN(C)CC3)nc(/C=C/c3ccccc3)n2)n[nH]1 + Cc1cc(N2CCOCC2)cc2[nH]c(-c3c(NC[C@@H](O)c4cccc(Cl)c4)cc[nH]c3=O)nc12 [BMS536924] (first compound 0.04 µM, partner dose 0.2 µM)",101
11,"Cc1cn(-c2cc(NC(=O)c3ccc(C)c(Nc4nccc(-c5cccnc5)n4)c3)cc(C(F)(F)F)c2)cn1 [nilotinib] + COc1cc2ncnc(Nc3ccc(Oc4ccccc4)cc3)c2cc1OC [SrcI1] (first compound 0.2 µM, partner dose 2 µM)",107
12,"COc1ccc(C2=N[C@@H](c3ccc(Cl)cc3)[C@@H](c3ccc(Cl)cc3)N2C(=O)N2CCNC(=O)C2)c(OC(C)C)c1 [Nutlin-3] + CN(NC(=O)CC(=O)NN(C)C(=S)c1ccccc1)C(=S)c1ccccc1 [STA4783] (first compound 0.1 µM, partner dose 0.006 µM)",87.5
13,"Cc1cc(Nc2cc(N3CCN(C)CC3)nc(/C=C/c3ccccc3)n2)n[nH]1 + COc1ccc(-c2ccc3c(N4CCOCC4)nc(N4C[C@@H](C)O[C@@H](C)C4)nc3n2)cc1CO [KU0063794] (first compound 0.04 µM, partner dose 0.02 µM)",99.7
14,"Cn1c(=O)n(-c2ccc(C(C)(C)C#N)cc2)c2c3cc(-c4cnc5ccccc5c4)ccc3ncc21 + C[C@@H]1CCN(C(=O)CC#N)C[C@@H]1N(C)c1ncnc2[nH]ccc12 [CP690550] (first compound 0.004 µM, partner dose 1 µM)",95.1
15,"Cc1cn(-c2cc(NC(=O)c3ccc(C)c(Nc4nccc(-c5cccnc5)n4)c3)cc(C(F)(F)F)c2)cn1 [nilotinib] + C[C@@H]1CCN(C(=O)CC#N)C[C@@H]1N(C)c1ncnc2[nH]ccc12 [CP690550] (first compound 0.2 µM, partner dose 1 µM)",91.9
16,"Cn1c(=O)n(-c2ccc(C(C)(C)C#N)cc2)c2c3cc(-c4cnc5ccccc5c4)ccc3ncc21 + NC(=O)Nc1cc(-c2cccc(F)c2)sc1C(=O)N[C@H]1CCCNC1 [AZD7762] (first compound 0.004 µM, partner dose 0.02 µM)",93.8
